What all share (assay): Primary Screen for Target Class Profiling of Small Molecule Inhibitors of Methyltransferases
Assay [1] addresses Glycine N-methyltransferase (Homo sapiens) (UniProt Q14749). As to conditions: purified enzyme, MTase-Glo SAH luminescence; measured here: GNMT inhibition; at 40 µM; stronger effect = lower value. A digest of the protocol:
(§1)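 Each enzyme was assayed with SAM and its substrate. SAH formation detected by MTase-Glo luminescence; single-point 40 uM screen[…].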

In assay [2] the target is Guanidinoacetate N-methyltransferase (Homo sapiens) (UniProt Q14353). Particulars: purified enzyme, MTase-Glo SAH luminescence; measured here: GAMT inhibition; at 40 µM; stronger effect = lower value. In short, it runs like this: as §1
Assay [3] addresses Histamine N-methyltransferase (Homo sapiens) (UniProt P50135). As to conditions: purified enzyme, MTase-Glo SAH luminescence; measured here: HNMT inhibition; at 40 µM; stronger effect = lower value. In short, it runs like this: as §1
Assay [4] concerns the target Nicotinamide N-methyltransferase (Homo sapiens) (UniProt P40261). As to conditions: purified enzyme, MTase-Glo SAH luminescence; measured here: NNMT inhibition; at 40 µM; stronger effect = lower value. In short, it runs like this: as §1
The target in assay [5] is Phenylethanolamine N-methyltransferase (Homo sapiens) (UniProt P11086). Particulars: purified enzyme, MTase-Glo SAH luminescence; measured here: PNMT inhibition; at 40 µM; stronger effect = lower value. In short, it runs like this:
as §1

Some of the results follow. These are further read-outs of the screen, such as a control signal, another cell line or another target. No call is given for them.

The values below come from PubChem BioAssay AID1745853 (National Center for Advancing Translational Sciences (NCATS), 2022).
% is scaled to controls: 0 for no effect and ±100 for the full control effect.

Regarding `CCOC(=O)c1cc2n(n1)CC(C)(C(=O)NC1CCCCCC1)N(Cc1cccc(F)c1)C2=O` (stereo not given), the activity change, negative = inhibition was 7.86% in assay [1]; 4.4% in assay [2]; 5.8% in assay [3]; 3.27% in assay [4]; 5.08% in assay [5].
For `CC(C)Nc1nc2c(S(=O)(=O)c3ccccc3)nnn2c2ccc(Cl)cc12`, in that order: -3.75%, 4.96%, 5.81%, -4.71% and 0.998%.
As to `Cn1c(=O)c2c(ncn2Cc2ccc(C(C)(C)C)cc2)n(C)c1=O`, the activity change, negative = inhibition in assay [1] was 1.15%; in assay [2] it was 9.2%; in assay [3], 9.8%; in assay [4], -25.1%; in assay [5], 0.113%.
For `CCCn1c(=O)c2ccccc2n2c(SCC(=O)Nc3ccc(C)cc3)nnc12`, in that order: -4.49%, 0%, 5.86%, 0.54% and 2.5%.
As to `CNC(=O)C1C(=O)NCC12CCN(C(=O)c1ccc(C(C)(C)C)cc1)CC2` (stereo not given), the activity change, negative = inhibition in assay [1] was -4.63%; in assay [2] it was -4.39%; in assay [3], -2.49%; in assay [4], -15.7%; in assay [5] it was 8.98%.
For `CN(C)c1cc(N2CCCC(NC(=O)c3cccnc3)C2)ncn1` (stereo not given), in that order: -6.04%, -4.95%, -3.07%, -7.76% and -2.45%.
As for `COc1cccc(CN2CC3(C2)NC(=O)c2ccccc2O3)c1`, the activity change, negative = inhibition in assay [1] was -4.55%; in assay [2], 3.98%; in assay [3], -3.09%; in assay [4] it was -8.45%; in assay [5], -0.902%.
For `O=C(/C=C\n1cnc(-c2cc(C(F)(F)F)cc(C(F)(F)F)c2)n1)N1CC(F)(F)C1`, in that order: -6.83%, 1.79%, 8.05%, -18.1% and 2.61%.
For `CCCn1c(=O)c2ccc(C(=O)NC(C)C)cc2n2c(SCc3ccc(F)cc3)nnc12`, in that order: -2.87%, -3.14%, 3.11%, -11.1% and -7.21%.
For `CN1CCN(C(c2ccccc2)c2ccccc2)CC1`, in that order: -6.48%, -2.1%, 7.18%, -23.2% and 0.56%.
On to `COCCCNC(=O)CCn1ccc2cc(S(=O)(=O)N3CCCCC3)ccc21`, for which the activity change, negative = inhibition was found to be 9.98% in assay [1]; 5.09% in assay [2]; 7.64% in assay [3]; 8.18% in assay [4]; 3.6% in assay [5].
For `CCCC[S+](=O)([O-])N1CC(=O)N(CCCc2ccccc2)CC(O)C1` (stereo not given), in that order: -0.393%, 2.4%, 0.828%, -1.92% and -1.74%.
On to `CO[C@H]1C[C@@H]2CC[C@@H](C)[C@@](O)(O2)C(=O)C(=O)N2CCCC[C@H]2C(=O)O[C@H]([C@@H](C)C[C@@H]2CC[C@@H](O)[C@H](OC)C2)CC(=O)[C@H](C)/C=C(\C)[C@@H](O)[C@@H](OC)C(=O)[C@H](C)C[C@H](C)/C=C/C=C/C=C/1C`, for which the activity change, negative = inhibition was -7.88% in assay [1]; 13.5% in assay [2]; 6.18% in assay [3]; 3.34% in assay [4]; 8.66% in assay [5].
Take `CC(C)OC(=O)C1=CN(C(=O)c2ccc(F)c(F)c2)CC(C)(C)c2c1[nH]c1ccccc21`: the activity change, negative = inhibition was -1.42% in assay [1]; -13.1% in assay [2]; -0.2% in assay [3]; -23.2% in assay [4]; -8.86% in assay [5].
For `CC(C)CCn1c(=O)c2ccccc2n2c(=O)n(CC(=O)N3CCN(c4ccc(F)cc4)CC3)nc12`, in that order: 3.96%, 0.576%, 2.25%, -5.38% and 5.79%.
Consider `CC(=O)N1c2ccccc2C2(O)CC3C(=O)NC(CC(C)C)C(=O)N3C12` (stereo not given), for which the activity change, negative = inhibition is -3.61% in assay [1]; 1.51% in assay [2]; 4.71% in assay [3]; -10.7% in assay [4]; 4.33% in assay [5].
For `CC(=O)O[C@@H]1[C@H](O[C@@H]2O[C@@H](CO)[C@H](O)[C@H]2O)[C@@H](O[C@@H]2O[C@@H](C)[C@H](O[C@@H]3OC[C@@H](O)[C@H](O)[C@H]3O)[C@@H](O)[C@H]2O)[C@H](OC(=O)[C@]23CCC(C)(C)C[C@H]2C2=CCC4[C@@]5(C)CC[C@H](O[C@@H]6O[C@H](C(=O)O)[C@@H](O)[C@H](O)[C@H]6O[C@@H]6O[C@H](CO)[C@H](O)[C@H](O)[C@H]6O)[C@@](C)(C=O)C5CC[C@@]4(C)[C@]2(C)CC3)O[C@@H]1C` (stereo not given in full), in that order: 0%, 19%, 8.85%, 7.49% and 6.71%.
For `CC1(C)[C@H](Cc2cc(CN3CCCCC3)on2)C[C@@H]1N`, in that order: -1.31%, 1.64%, -1.87%, -1.97% and 9.36%.
For `CCOC(=O)c1cc2n(n1)CC(C)(C(=O)NC1CCC(C)CC1)N(c1ccc(C)c(C)c1)C2=O` (stereo not given), in that order: 4.43%, 0.514%, 3.97%, -2.42% and 4.65%.
With `c1cc2c(cc1OC1CNC1)OCO2`, the activity change, negative = inhibition was -1.81% in assay [1]; -1.59% in assay [2]; -3.11% in assay [3]; -1.94% in assay [4]; -5.29% in assay [5].
Consider `CN(Cc1cc(C[C@@H]2C[C@H](NC(=O)C(C)(C)C)C2(C)C)no1)c1ccccc1`, for which the activity change, negative = inhibition is -4.12% in assay [1]; 2.57% in assay [2]; -1.73% in assay [3]; -22.2% in assay [4]; 4.65% in assay [5].
For `O=c1onc2cnc3ccccc3n12`, in that order: -31.5%, -1.71%, -7.51%, -17.5% and -3.62%.
`CC(C)(C)OC(=O)N[C@H]1CCCCCC=C[C@@H]2C[C@@]2(C(=O)NS(=O)(=O)C2CC2)NC(=O)[C@@H]2C[C@@H](OC(=O)N3Cc4cccc(F)c4C3)CN2C1=O`: the activity change, negative = inhibition was -9.11% in assay [1]; 6.05% in assay [2]; 7.63% in assay [3]; -16.4% in assay [4]; 0.571% in assay [5].
On to `COc1cccc(CN2CC[C@@](O)(C3CC3)[C@H](C)C2)c1OC`, for which the activity change, negative = inhibition in assay [1] is -2.59%; in assay [2], -2.35%; in assay [3] it was -1.39%; in assay [4], -5.38%; in assay [5], -0.421%.
For `CC(C)c1ccc(NS(=O)(=O)c2ccc3c(c2)n(C)c(=O)n3C)cc1`, in that order: -6.55%, 0.786%, -3%, -22.5% and -6.63%.
For `Cc1cccc(O[C@H]2COCCN(c3nc4ccccc4o3)C2)n1`, in that order: -7.1%, -4.72%, -3.47%, -49.2% and -3.96%.
For `CC1CCCN(C(=O)Cn2c(=O)oc3cc(S(=O)(=O)N4CCCCC4)ccc32)C1` (stereo not given), in that order: 0.6%, 2.65%, 9.27%, 15% and -0.599%.
